From ChEMBL document CHEMBL1201862, “PubChem BioAssay data set” (2004)
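These data come from cells grown in 96-well plates and exposed to compound for 48 hours at five concentrations. GI50 marks 50% less growth.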 Calls of active or inactive are those of the source. Rule as the data show it: active = GI50 up to about 1.1 µM and inactive = higher. Peptide text beside a SMILES is read from it. * marks the point of attachment. Fmoc = O=C(OCC1c2ccccc2-c2ccccc21)*; OtBu = CC(C)(C)O*

Each compound was assayed on NCI-H322M (assay: NCI anticancer screen, dose series, 48 h).
For `NCCCNCCSSCc1ccccc1CSSCCNCCCN`, the GI50 was inactive: > 100 µM. For `CN=S(=O)(C[C@]1(O)CC2OC1C1OC(C)(C)OC21)c1ccccc1` (stereo partly specified), the GI50 was inactive: > 100 µM. In the case of `CCOC(=O)COc1ccccc1/C=C1\CCC(CN(C)C)C1=O` (stereo unspecified), the GI50 is reported as inactive: 17.4 µM. `CCC(C)CNC1=C(NC(C)=O)C(=O)c2ccccc2C1=O` (stereo unspecified) was tested, and the GI50 was inactive: > 100 µM. In the case of `COc1ccc(-[n+]2nc(S(=O)(=O)O)c(/C=C/c3ccc(N(C)C)cc3)cc2C#N)cc1`, the GI50 is reported as inactive: > 100 µM. In the case of `COC(=O)CCC(=O)c1ccc2c(c1)CC1(Cc3ccccc3C1)C2`, the GI50 is reported as inactive: > 100 µM. For `CN1CC2=C(OC(N)=C(C#N)C2c2cccs2)/C(=C/c2cccs2)C1` (stereo unspecified), the GI50 was inactive: 21.4 µM. `O=C(/C=C/c1ccc(O)c(O)c1)OCCCOC(=O)/C=C/c1ccc(O)c(O)c1` was tested, and the GI50 was inactive: 35.6 µM. For `CCNC(=O)c1cc(/C=C/c2ccc([N+](=O)[O-])o2)nc2ccccc12`, the GI50 was inactive: 66.1 µM. `CN1CCOC1(C)c1ccccc1` (stereo unspecified) was tested, and the GI50 was inactive: > 100 µM. In the case of `O=P(O)(O)c1ccc2c(c1)OCCOCCOCCOCCO2`, the GI50 is reported as inactive: > 100 µM. For `O=C1c2ccccc2C(=O)N1CC(CN1C(=O)c2ccccc2C1=O)(C(=O)OCc1ccccc1)C(=O)OCc1ccccc1`, the GI50 was inactive: > 100 µM. In the case of `CC1=C(O)C(=O)C2C(=O)C1C(C)C2c1ccccc1` (stereo unspecified), the GI50 is reported as inactive: > 100 µM. For `CC(C)C(NC(=O)OCC1c2ccccc2-c2ccccc21)C(=O)NC(CCC(=O)OC(C)(C)C)C(=O)OC(C)(C)C` (stereo unspecified) (Fmoc-Val-Glu(OtBu)-OtBu; configuration not given here), the GI50 was inactive: > 100 µM. In the case of `CCOC(=O)C(=Cn1c(=S)[nH]c2ccc([N+](=O)[O-])cc21)C(=O)OCC`, the GI50 is reported as inactive: > 100 µM. In the case of `CCn1c(=N)sc2nc3ccccc3n2c1=O`, the GI50 is reported as inactive: > 100 µM. For `Cc1cc(S(N)(=O)=O)c(SCc2nc(N)nc(N(C)C)n2)cc1Cl`, the GI50 was inactive: > 10 µM. For `CC1(O)C=CC(=O)C=C1`, the GI50 was inactive: > 39.4 µM. In the case of `NC(Cc1ncccn1)C(=O)O` (stereo unspecified), the GI50 is reported as inactive: > 100 µM. `Cc1ccc(S(=O)(=O)OCC23CCC(C4CC42)C2CC23)cc1` (stereo unspecified) was tested, and the GI50 was inactive: > 100 µM. In the case of `O=C1NC2OCC(O)C(O1)C2O` (stereo unspecified), the GI50 is reported as inactive: > 100 µM. With `C[C@]12CC[C@@H]3c4ccc(O)cc4CC[C@H]3[C@@H]1C/C(=C\c1ccncc1)C2=O` the GI50 was inactive: 33 µM. With `Cn1c(=O)c2ccccc2c2nc3ccccc3nc21` the GI50 was inactive: > 100 µM. In the case of `O=C(Nc1nc2ncn(CCI)c2c(=O)[nH]1)c1ccccc1`, the GI50 is reported as inactive: > 100 µM. In the case of `COC(=O)c1c2c(cc3c1CC1(Cc4ccccc4C1=O)C3)CCC2` (stereo unspecified), the GI50 is reported as inactive: 29.5 µM. For `O=C(O)c1nn(-c2ccccc2-c2nnc(O)nc2O)c(=O)[nH]c1=O`, the GI50 was inactive: > 100 µM. For `COc1cccc(/N=N/N2CCCC2)c1`, the GI50 was inactive: > 100 µM. `Cn1cnc([N+](=O)[O-])c1Sc1nccn1-c1cccc2ccccc12` was tested, and the GI50 was inactive: 25.4 µM. For `C=C1C(=O)OC2/C=C(\C)CC/C=C(\C)CC(OC(=O)/C(=C/CO)CO)[C@@H]12` (stereo partly specified), the GI50 was inactive: 19.4 µM. In the case of `Nc1cc(N2CCCC2)nc(=O)n1-c1ccccc1`, the GI50 is reported as inactive: > 100 µM. With `O=C1C(Cl)=C(NCCCN2CCOCC2)C(=O)c2c(O)ccc(O)c21` the GI50 was inactive: 1.9 µM. In the case of `O=c1[nH]cnc2sc(=S)c3c(c12)CCC3`, the GI50 is reported as inactive: 35.9 µM. With `Cc1cccc(NS(=O)(=O)c2ccc(/N=N/c3c(O)c(C(=O)O)cc4ccccc34)cc2)n1` the GI50 was inactive: > 100 µM. In the case of `COc1cc(/C=N/c2ccc(Oc3ccc(Cl)cc3)c(Cl)c2)cc(OC)c1OC`, the GI50 is reported as inactive: 20 µM. `COc1cc2c3c(c1O)-c1c(ccc(OC)c1OC)CC3N(C)CC2` (stereo unspecified) was tested, and the GI50 was inactive: > 100 µM. In the case of `O=C1CCN2c3ccccc3[C@H]3Cc4cccc(c4[C@@H]2C3)CCO1`, the GI50 is reported as inactive: 97.1 µM. For `CCO[C@]12C[C@H](OC)[C@@]3(O)CC(C1[C@H]3O)C13C4C2[C@H](OC)C1[C@](COC)(CN4CC)[C@H](O)C[C@@H]3OC` (stereo partly specified), the GI50 was inactive: > 100 µM. With `COC(=O)C1=C(C)NC2(C)OC(C)(O)C(C(C)=O)C12C(C)=O` (stereo unspecified) the GI50 was inactive: > 100 µM. With `NC1CCC[C@H]1O` (stereo partly specified) the GI50 was inactive: > 100 µM. `Cc1ccc(S(=O)(=O)N2C[C@@H]3CC[C@]4(CO[Si](C)(C)C(C)(C)C)N[C@@H](c5ccccc5)[C@H]2[C@H]34)cc1` was tested, and the GI50 was inactive: 39.4 µM. `COc1cccc(NC(=O)CC(=O)N2N=C(N3c4ccccc4Sc4ccccc43)CC2c2ccccc2)c1` (stereo unspecified) was tested, and the GI50 was inactive: > 100 µM. In the case of `COC(=O)C(=O)C(CC(=O)Nc1cc(Cl)ccc1Cl)C(=O)OC` (stereo unspecified), the GI50 is reported as inactive: > 100 µM. In the case of `O=S(=O)(O)c1cc(/N=N/c2c(O)ccc3ccccc23)ccc1/C=C/c1ccc(/N=N/c2c(O)ccc3ccccc23)cc1S(=O)(=O)O`, the GI50 is reported as inactive: > 100 µM. For `CCN(CC)c1ccc(/C=C/C=C2C(=O)NC(=S)NC2=O)cc1`, the GI50 was inactive: > 100 µM. With `COC(=O)c1cc2cc3c(c(O)c2c(=O)o1)O[C@@]1(Oc2c(O)c4c(c(O)c2[C@H]1OC1CC(OC)C(O)C(C)O1)C(=O)C=C(OC)C4=O)[C@H](O)C3` (stereo partly specified) the GI50 was inactive: 1.23 µM. With `NC(=S)NNc1c([N+](=O)[O-])cnn(-c2ccccc2)c1=O` the GI50 was inactive: 17.9 µM. With `CCSCCCN(CCCSCC)CCCSCC` the GI50 was inactive: > 100 µM. `C(=C/c1nnnn1-c1ccccc1)/Nc1ccccc1` was tested, and the GI50 was inactive: 49.4 µM. For `COC(=O)/C(C)=C/[N+](=O)[O-]`, the GI50 was inactive: 20.3 µM. With `CCOC(=O)CCC(=O)C1c2cccc(O)c2C(=O)c2c(O)cccc21` the GI50 was inactive: 1.36 µM. `O=C1c2cccnc2S(=O)(=O)N1c1ccc(Oc2ccccc2)cc1` was tested, and the GI50 was inactive: > 100 µM. For `N#CI1OC(C(F)(F)F)(C(F)(F)F)c2ccccc21`, the GI50 was inactive: > 100 µM. In the case of `CC(=O)/C(=C/NC(=S)c1ccncc1)C(=O)Nc1ccccc1C`, the GI50 is reported as inactive: > 100 µM. `CC(=O)NC(CS)C(=O)NC(CO)C(=O)NC(CO)C(=O)NC(Cc1c[nH]c2ccccc12)C(=O)N1CCCC1C(=O)NC(CO)C(=O)NC(Cc1c[nH]c2ccccc12)C(=O)NC(Cc1c[nH]cn1)C(=O)NC(CO)C(=O)NC(Cc1c[nH]c2ccccc12)C(=O)NCC(=O)NCC(=O)NC(C)C(=O)NC(CCC(N)=O)C(=O)NC(CCCCN)C(=O)NC(C)C(=O)NC(CCCNC(=N)N)C(=O)NC(CCCCN)C(N)=O` (stereo unspecified) (Ac-CSSWPSWHSWGGAQKARK-NH2; configuration not given here) was tested, and the GI50 was inactive: > 50 µM. In the case of `COC(CN(C(C)=O)C1CCC2(SCCS2)c2[nH]c3ccccc3c21)OC` (stereo unspecified), the GI50 is reported as inactive: > 100 µM. In the case of `COC(=O)CC1C(=O)OCc2c1cc1n(c2=O)Cc2c-1nc1ccccc1c2OC` (stereo unspecified), the GI50 is reported as inactive: 63.5 µM. For `COc1ccc(OC)c(-c2cc(C(=O)O)c3cc4ccccc4cc3n2)c1`, the GI50 was inactive: > 100 µM. In the case of `CC1(C)[C@@H]2C[C@H]1C(Cc1ccc(C[C@H]3c4cc(-c5ccccn5)ncc4[C@H]4C[C@@H]3C4(C)C)cc1)c1cc(-c3ccccn3)ncc12` (stereo partly specified), the GI50 is reported as inactive: 2.32 µM. For `N[C@H](CCC(=O)NCP(=O)(O)O)C(=O)O`, the GI50 was inactive: > 100 µM. In the case of `CC1C2(C)OCC(C#N)(C(=N)O2)C1(C#N)C#N` (stereo unspecified), the GI50 is reported as inactive: > 100 µM. In the case of `c1ccc2c(c1)cc1n2CCc2c-1[nH]c1ccccc21`, the GI50 is reported as inactive: > 10 µM. `C1CCN(C2OC3C(COC3N3CCCCC3)OC2OC2CCO[C@@H]2N2CCCCC2)CC1` (stereo partly specified) was tested, and the GI50 was inactive: > 100 µM. `CCOC(=O)C(=O)CC1=Nc2ccccc2SC(c2cccc(C)c2)C1` (stereo unspecified) was tested, and the GI50 was inactive: 21.6 µM. In the case of `C=C1C(=O)O[C@@H]2[C@H](O)[C@@H](C)[C@@H]3C=CC(=O)[C@@]3(C)[C@@H](OC(=O)/C(C)=C/C)[C@H]12`, the GI50 is reported as inactive: 2.72 µM. With `CC(C)OP(=O)(OC(C)C)/C(Cl)=N/Nc1ccc([N+](=O)[O-])cc1` the GI50 was inactive: 72.8 µM. `C[C@]12CC(c3ccccc3O1)C(C(=O)NC13CC4CC(CC(C4)C1)C3)C(=O)N2` (stereo partly specified) was tested, and the GI50 was inactive: 18.7 µM. With `CCOP1(=O)C=C(Sc2ccc([N+](=O)[O-])cc2[N+](=O)[O-])C(C)(C)O1` (stereo unspecified) the GI50 was inactive: 21.1 µM. `O=[N+]([O-])c1cccnc1S(=O)(=O)c1ccccc1` was tested, and the GI50 was inactive: 21.3 µM. For `O=C(c1ccccc1)c1c(CC(O)c2cccnc2)n(C(=O)c2ccccc2)c2ccccc12` (stereo unspecified), the GI50 was inactive: 33.7 µM. In the case of `COc1ccc2c(c1)nc1n2C(c2c(Cl)cccc2Cl)SC1` (stereo unspecified), the GI50 is reported as inactive: 44.4 µM. For `CC(C)OP(=O)(OC(C)C)C(C(F)(F)F)C(F)(F)F`, the GI50 was inactive: > 100 µM. For `Nc1nc(O)c(Br)c(-c2cccc([N+](=O)[O-])c2)n1`, the GI50 was inactive: > 100 µM. In the case of `CC(=O)/N=C1/N(/C=C2\C(=O)Oc3ccccc3C2=O)C(=O)/C(=C/c2ccc(Cl)cc2Cl)N1C`, the GI50 is reported as inactive: > 100 µM. In the case of `CN(C)CCNC(=O)c1cccc2nc3c(ccc4ccccc43)nc12`, the GI50 is reported as inactive: 3.02 µM. With `Cc1nn(C)c(=S)n(C)c1=O` the GI50 was inactive: 43.7 µM. `COc1ccc(N(C(=O)NCCO)c2ccccc2)cc1` was tested, and the GI50 was inactive: > 100 µM. In the case of `CCCCCCCCCCCCCCCCP(=O)(OC)OC`, the GI50 is reported as inactive: 17.2 µM. `O=C(O)C(C(=O)C(=O)C(C(=O)O)c1ccc(Cl)cc1)c1ccc(Cl)cc1` (stereo unspecified) was tested, and the GI50 was inactive: 4.29 µM. For `COC(=O)[C@@H](O)[C@]1(C(=O)OC)C2O[C@@H](OC)[C@@H]1CCCCCC[C@H]2O`, the GI50 was inactive: > 100 µM. In the case of `CC(=O)CCC1(C(=O)OCC(C)C)CCCC1=O` (stereo unspecified), the GI50 is reported as inactive: > 100 µM. For `CC(CC(=O)Nc1ccc(NC(=O)CC(C)/N=N\C(N)=S)cc1)/N=N\C(N)=S` (stereo unspecified), the GI50 was inactive: > 100 µM. For `C[N+](C)(C)CC1CCC/C1=N/O` (stereo unspecified), the GI50 was inactive: 1.85 µM. For `CCCCOC(=O)/C(CC(=O)C=C(C)C)=N\NS(=O)(=O)c1ccc(C)cc1`, the GI50 was inactive: > 100 µM. With `Clc1ccc(CSC2=NCCN2)cc1Cl` the GI50 was inactive: 20.4 µM. For `CC(C)(C)C(=O)OC(N)/C=C/c1ccccc1` (stereo unspecified), the GI50 was inactive: > 100 µM. In the case of `O=c1c2cccnc2ncn1CCCN1CCOCC1`, the GI50 is reported as inactive: > 100 µM. In the case of `CC(=O)CC(=O)CCCC(=O)Nc1ccc(Cl)cc1C`, the GI50 is reported as inactive: > 100 µM. For `NC(Cc1ccccc1)P(=O)(O)O` (stereo unspecified), the GI50 was inactive: > 100 µM. With `CC(=O)Oc1ccc(Nn2c3ccccc3c3ccccc32)c(C)c1` the GI50 was inactive: > 100 µM. `CC1=NOC(C)(O)/C1=N/O` (stereo unspecified) was tested, and the GI50 was inactive: > 100 µM. In the case of `COC(=O)C(=O)Cc1nc2ccccc2o1`, the GI50 is reported as inactive: > 100 µM.
